Measurements: the supplement of paper PMC3334620
Over roughly 33,000 sequences, “E-score (-0.5 to 0.5)” has its median near -0.056; the highest 2% begin near 0.38. Some of the results follow.

Biological target: Stb4 (UniProt P50104)
Assay: PBM E-score (8-mer binding enrichment) (E-score (-0.5 to 0.5)); higher = stronger / more preferred TF binding; most listed sequences are background and not binding sites
Conditions: protein concentration: 200 nM; construct: GST-DNA-binding domain
Experimental: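 Universal 'all 10-mer' protein binding microarrays (Agilent AMADID 015681) probed with GST-tagged S. cerevisiae TFs (full-length or DBD) made by in vitro transcription/translation (PURExpress), about 100-200 nM. Bound TF was detected with fluorescent anti-GST. Each ungapped 8-mer (which stands for itself and its reverse complement) is scored by the PBM enrichment score (E-score), a modified Wilcoxon-Mann-Whitney statistic from -0.5 to +0.5, computed with the Universal PBM Analysis Suite. Scale: above 0.35 generally sequence-specific binding.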

Compared with CGGAGACC, ATGTCCCG is higher in “PBM E-score” value: 0.205 for the first, 0.352 for the second.

Going from CACTGGCG to GGGCCTAC, the “PBM E-score” value rises from -0.162 to -0.0886.

Going from CCTACAAA to GCACCACC, the “PBM E-score” value falls from 0.0311 to 0.00724.

Going from ACCCGAGA to CGGTGAGA, the “PBM E-score” value falls from 0.472 to -0.00483.

First: AGACCCGG
Second: ACTGTGCT
The “PBM E-score” value of the first is higher: 0.305 for the first, -0.196 for the second.

First: CAATACAC
Second: GACGACAA
The “PBM E-score” value of the first is lower: -0.105 for the first, 0.183 for the second.

Compared with AAACGCTA, GTGTTACA is higher in “PBM E-score” value: -0.194 for the first, -0.0391 for the second.

Going from AGGCGATA to GCCGTAGC, the “PBM E-score” value rises from -0.166 to -0.0407.

First: CGTCAGAG
Second: AAGTAAAA
The “PBM E-score” value of the first is lower: -0.169 for the first, -0.0223 for the second.

First: AATCCAAG
Second: TCCGGACA
The “PBM E-score” value of the first is lower: -0.12 for the first, 0.322 for the second.

First: TACCTATA
Second: ACTGACTA
The “PBM E-score” value of the first is lower: -0.303 for the first, -0.198 for the second.

First: AAGCCGAA
Second: GTTTAATA
The “PBM E-score” value of the first is higher: 0.407 for the first, -0.13 for the second.

First: ACCTCTAT
Second: CGCCGCCA
The “PBM E-score” value of the first is lower: -0.105 for the first, 0.0468 for the second.

First: CCGTACCC
Second: AAAACCTA
The “PBM E-score” value of the first is higher: 0.214 for the first, 0.043 for the second.

First: CAAATGTG
Second: AGGGAGAT
The “PBM E-score” value of the first is higher: 0.15 for the first, -0.24 for the second.

Compared with AAGTGAAC, ACAAAAGC is higher in “PBM E-score” value: -0.136 for the first, -0.101 for the second.

First: GTGCTCCA
Second: ATGATACC
The “PBM E-score” value of the first is lower: -0.225 for the first, 0.0572 for the second.

Compared with AACGCTGC, GCTCGTAA is higher in “PBM E-score” value: -0.176 for the first, -0.0667 for the second.

Compared with GCCACTAA, ACTCGGCA is higher in “PBM E-score” value: -0.193 for the first, 0.428 for the second.

Compared with GCACACAA, AAGTGTCA is lower in “PBM E-score” value: -0.0776 for the first, -0.233 for the second.

First: CAGGGCAC
Second: GCAGTACC
The “PBM E-score” value of the first is lower: -0.15 for the first, 0.094 for the second.

Compared with ATCTGTAG, TACACGGA is higher in “PBM E-score” value: 0.00216 for the first, 0.229 for the second.

Compared with GCCACAGC, AAGCGACG is higher in “PBM E-score” value: -0.0704 for the first, -0.0432 for the second.

Compared with AACTCAAA, GTAGGTGA is lower in “PBM E-score” value: 0.00363 for the first, -0.139 for the second.

First: CGTAAGCC
Second: TCAGATGA
The “PBM E-score” value of the first is higher: -0.0615 for the first, -0.133 for the second.

Compared with AGTAATAG, AGGGGCCA is higher in “PBM E-score” value: -0.191 for the first, -0.106 for the second.

Compared with CGATGGCC, CTCGACTA is lower in “PBM E-score” value: -0.0191 for the first, -0.177 for the second.

First: CCGGTAAG
Second: TAACGCGA
The “PBM E-score” value of the first is higher: 0.286 for the first, -0.183 for the second.

Compared with GCGCTCTA, GATCGCGA is higher in “PBM E-score” value: -0.169 for the first, 0.0153 for the second.

Going from TGACGAAA to CTGTACAA, the “PBM E-score” value rises from -0.207 to -0.101.

First: TACGGAGA
Second: TATCTAAA
The “PBM E-score” value of the first is lower: 0.0409 for the first, 0.0428 for the second.

First: AGATTGTA
Second: AAAAAGCC
The “PBM E-score” value of the first is lower: -0.149 for the first, 0.186 for the second.

Going from ATGGGGAG to GGTTTCGA, the “PBM E-score” value rises from -0.169 to 0.0115.

Compared with CGACATAG, TGGCATAA is higher in “PBM E-score” value: -0.191 for the first, -0.035 for the second.

First: GGGGCGAC
Second: CGTACGCA
The “PBM E-score” value of the first is lower: -0.162 for the first, -0.101 for the second.

Going from TCCTGCAA to CTGGAGAC, the “PBM E-score” value falls from -0.127 to -0.167.

First: TGACTGCA
Second: AAAGGACG
The “PBM E-score” value of the first is lower: -0.125 for the first, -0.0909 for the second.

First: AAAAATTG
Second: TAGAAGAA
The “PBM E-score” value of the first is higher: 0.0569 for the first, -0.0359 for the second.

First: CGCCATAC
Second: AGTTTTAT
The “PBM E-score” value of the first is lower: 0.0506 for the first, 0.0949 for the second.

Compared with CCGAAGTA, CAAATAAC is lower in “PBM E-score” value: 0.418 for the first, -0.0404 for the second.

Going from AATCAACT to CGTTCTTA, the “PBM E-score” value rises from 0.0423 to 0.132.

Going from CAATGCCA to ACATCGCC, the “PBM E-score” value rises from -0.241 to 0.0301.

Compared with AACCATTC, AAAACGTC is lower in “PBM E-score” value: 0.0661 for the first, 0.021 for the second.

Compared with CACATCGC, TATGTACA is higher in “PBM E-score” value: -0.191 for the first, -0.166 for the second.

Going from GTCAAAAC to GATAGTAA, the “PBM E-score” value rises from -0.0364 to 0.0726.

Compared with AGGCCCGC, AAAGCCAC is lower in “PBM E-score” value: 0.0202 for the first, -0.21 for the second.

Compared with CCCACTAG, GTGAGCTA is lower in “PBM E-score” value: -0.0405 for the first, -0.202 for the second.
